{"source": "paper PMC6664820", "about": "“Novel natural and synthetic inhibitors of solute carriers SGLT1 and SGLT2” (Pharmacology Research & Perspectives, 2019)", "note": "Out of some 1,900 compounds screened, about 40 (2%) showed an effect of 50% or more. Some of the results follow.", "data": [{"target": "human SGLT1 (hSGLT1) (human, UniProt P13866)", "sequence (P13866 whole entry, looked up)": "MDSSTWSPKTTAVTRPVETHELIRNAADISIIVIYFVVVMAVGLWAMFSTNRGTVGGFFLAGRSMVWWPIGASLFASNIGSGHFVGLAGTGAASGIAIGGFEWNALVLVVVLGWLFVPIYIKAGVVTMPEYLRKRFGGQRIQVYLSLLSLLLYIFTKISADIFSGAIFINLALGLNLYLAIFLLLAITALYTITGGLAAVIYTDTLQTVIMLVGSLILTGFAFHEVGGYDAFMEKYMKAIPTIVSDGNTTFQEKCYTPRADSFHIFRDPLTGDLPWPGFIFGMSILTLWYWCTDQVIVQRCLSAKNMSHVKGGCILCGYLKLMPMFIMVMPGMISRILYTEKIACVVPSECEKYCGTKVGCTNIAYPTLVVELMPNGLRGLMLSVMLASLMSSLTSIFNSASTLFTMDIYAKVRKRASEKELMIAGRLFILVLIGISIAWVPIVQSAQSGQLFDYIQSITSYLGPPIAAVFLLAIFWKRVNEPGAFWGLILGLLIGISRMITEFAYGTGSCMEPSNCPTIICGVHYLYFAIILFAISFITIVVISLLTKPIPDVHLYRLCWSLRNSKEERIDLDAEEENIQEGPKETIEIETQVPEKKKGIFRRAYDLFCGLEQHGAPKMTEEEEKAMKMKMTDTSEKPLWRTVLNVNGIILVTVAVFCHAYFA", "test": "primary screen, percent of control activity; higher = less effect of the substance", "parameters": "single well", "settings": "50 µM", "procedure,_shortened": "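Single-point screen at 50 µmol/L in CHO-hSGLT1 cells, with 160 µmol/L 1-NBD-glucose in glucose-free DMEM for 90 min at 37°C. Fluorescence from isopropanol extracts was calibrated, and CHO wild-type uptake was subtracted. Data are percent of uptake without compound.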", "units": {"NORMALIZED SGLT1 ACTIVITY (%)": "%"}, "values": [{"smiles": "C1CCN2C[C@@H]3C[C@H](CN4CCCC[C@@H]34)[C@H]2C1.O=S(=O)(O)O", "NORMALIZED SGLT1 ACTIVITY (%)": 72}, {"smiles": "C[C@@H]1CC[C@H]2[C@@H](C)C(=O)O[C@@H]3O[C@@]4(C)CC[C@@H]1[C@]32OO4", "NORMALIZED SGLT1 ACTIVITY (%)": 120}, {"smiles": "CCCNC(C)C(=O)Nc1ccccc1C.Cl", "note": "(centres unmarked)", "NORMALIZED SGLT1 ACTIVITY (%)": 71}, {"smiles": "Cc1cc(O)cc(=O)o1", "NORMALIZED SGLT1 ACTIVITY (%)": 113}, {"smiles": "COC1=CC(=O)C=C(OC)C1=O", "NORMALIZED SGLT1 ACTIVITY (%)": 308}, {"smiles": "O=C(O)[C@H](O)[C@@](O)(Cc1ccc(O)cc1)C(=O)O", "NORMALIZED SGLT1 ACTIVITY (%)": 96}, {"smiles": "O=C(Oc1cc(OC(=O)c2ccccc2)c2c(c1)O[C@H](c1ccc(OC(=O)c3ccccc3)c(OC(=O)c3ccccc3)c1)[C@@H](OC(=O)c1ccccc1)C2)c1ccccc1", "NORMALIZED SGLT1 ACTIVITY (%)": 115}, {"smiles": "O=C(O)CN(CCN(CC(=O)O)CC(=O)O)CC(=O)O.[Na+].[Na+].[Na+]", "NORMALIZED SGLT1 ACTIVITY (%)": 85}, {"smiles": "CO/N=C(\\C(=O)N[C@@H]1C(=O)N2C(C(=O)[O-])=C(COC(C)=O)CS[C@H]12)c1csc(N)n1.[Na+]", "NORMALIZED SGLT1 ACTIVITY (%)": 112}, {"smiles": "COc1ccc(/C=C/C(=O)O)cc1OC", "NORMALIZED SGLT1 ACTIVITY (%)": 166}, {"smiles": "O=C1[C@H](CC[C@H](O)c2ccc(F)cc2)[C@@H](c2ccc(O)cc2)N1c1ccc(F)cc1", "NORMALIZED SGLT1 ACTIVITY (%)": 381}, {"smiles": "COc1ccc(-c2cc(=O)c3ccccc3o2)cc1", "NORMALIZED SGLT1 ACTIVITY (%)": 199}, {"smiles": "Cc1onc(-c2ccccc2)c1-c1ccc(S(N)(=O)=O)cc1", "NORMALIZED SGLT1 ACTIVITY (%)": 121}, {"smiles": "COc1c(C(=O)O)ccc2c1CCC(C)(C)O2", "NORMALIZED SGLT1 ACTIVITY (%)": 115}, {"smiles": "CC(=O)O[C@@H]1CC2C(C)(C)C(=O)C3OC3[C@]2(C)C2CC[C@@]3(C)[C@H](c4ccoc4)OC(=O)C4OC43[C@@]21C", "note": "(some centres unmarked)", "NORMALIZED SGLT1 ACTIVITY (%)": 138}, {"smiles": "C[C@@H]1CC[C@@]23CCC4(C)[C@@](C=CC5[C@@]6(C)CCC(=O)C(C)(C)C6CC[C@]54C)(OC2=O)C3[C@H]1C", "note": "(some centres unmarked)", "NORMALIZED SGLT1 ACTIVITY (%)": 93}, {"smiles": "NC(=O)NC1NC(=O)NC1=O", "note": "(centres unmarked)", "NORMALIZED SGLT1 ACTIVITY (%)": 91}, {"smiles": "CCCCCCCCCCCC1=C(O)C(=O)C=C(O)C1=O", "NORMALIZED SGLT1 ACTIVITY (%)": 99}, {"smiles": "CC(=O)c1cc2c(cc1O)OC(C)(C)C=C2", "NORMALIZED SGLT1 ACTIVITY (%)": 104}, {"smiles": "CCS(=O)CCSP(=O)(OC)OC", "note": "(centres unmarked)", "NORMALIZED SGLT1 ACTIVITY (%)": 98}, {"smiles": "CC(C)=CC1C(C(=O)OCc2cccc(Oc3ccccc3)c2)C1(C)C", "note": "(centres unmarked)", "NORMALIZED SGLT1 ACTIVITY (%)": 75}, {"smiles": "CC(=O)O[C@@H]1CC[C@@]2(C)C(C[C@@H](OC(C)=O)[C@]3(C)C2CC[C@@]2(C)[C@H](c4ccoc4)OC(=O)[C@H]4O[C@]423)C1(C)C", "note": "(some centres unmarked)", "NORMALIZED SGLT1 ACTIVITY (%)": 229}, {"smiles": "Cc1cn([C@H]2C[C@H](N=[N+]=[N-])[C@@H](CO)O2)c(=O)[nH]c1=O", "NORMALIZED SGLT1 ACTIVITY (%)": 240}, {"smiles": "C=C[C@H]1CN2CC[C@H]1C[C@@H]2[C@@H](O)c1ccnc2ccc(OC)cc12.O=C(O)[C@H](O)[C@@H](O)[C@H](O)[C@H](O)CO", "NORMALIZED SGLT1 ACTIVITY (%)": 56}, {"smiles": "Oc1cc2c(cc1O)C1c3ccc(O)c(O)c3OCC1(O)C2", "note": "(centres unmarked)", "NORMALIZED SGLT1 ACTIVITY (%)": 143}, {"smiles": "Cc1cccc(C)c1NC(=O)C1CCCCN1C.Cl", "note": "(centres unmarked)", "NORMALIZED SGLT1 ACTIVITY (%)": 83}, {"smiles": "Cl.O=C(O)c1cn(-c2ccc(F)cc2)c2cc(N3CCNCC3)c(F)cc2c1=O", "NORMALIZED SGLT1 ACTIVITY (%)": 98}, {"smiles": "COc1ccc(CC2c3cc(OC)c(OC)cc3CCN2C)cc1OC", "note": "(centres unmarked)", "NORMALIZED SGLT1 ACTIVITY (%)": 124}, {"smiles": "CC(=O)O[C@@H]1CC2C(C)(C)CCC(=O)[C@]2(C)C2CC[C@@]3(C)[C@H](c4ccoc4)OC(=O)C4OC43[C@@]21C", "note": "(some centres unmarked)", "NORMALIZED SGLT1 ACTIVITY (%)": 126}, {"smiles": "COc1cc2c(cc1OC)C(=O)OC2", "NORMALIZED SGLT1 ACTIVITY (%)": 185}, {"smiles": "COc1ccc2c3c1O[C@H]1C[C@@H](O)C=C[C@@]31CCN(C)C2", "NORMALIZED SGLT1 ACTIVITY (%)": 123}, {"smiles": "O=c1[nH]cnc2[nH]ncc12", "NORMALIZED SGLT1 ACTIVITY (%)": 109}, {"smiles": "O=C([O-])P(=O)([O-])[O-].[Na+].[Na+].[Na+]", "NORMALIZED SGLT1 ACTIVITY (%)": 112}, {"smiles": "COc1ccc2cc([C@H](C)CO)ccc2c1", "NORMALIZED SGLT1 ACTIVITY (%)": 111}, {"smiles": "Cc1c(Cl)cccc1Nc1ccccc1C(=O)O", "NORMALIZED SGLT1 ACTIVITY (%)": 358}, {"smiles": "CCOc1ccc(NC(C)=O)cc1", "NORMALIZED SGLT1 ACTIVITY (%)": 151}, {"smiles": "C=C1[C@H]2CC[C@@]3(C)[C@H](c4ccoc4)OC(=O)C[C@]13O[C@H]1C[C@H](O)C(C)(C)[C@H](CC(=O)OC)[C@]12C", "NORMALIZED SGLT1 ACTIVITY (%)": 115}, {"smiles": "Nc1ncnc2c1ncn2[C@@H]1O[C@H](CO)[C@@H](O)[C@@H]1O", "NORMALIZED SGLT1 ACTIVITY (%)": 107}, {"smiles": "CC1(C)C=Cc2cc3ccc(=O)oc3cc2O1", "NORMALIZED SGLT1 ACTIVITY (%)": 108}, {"smiles": "O=C(/C=C/C(=O)Oc1ccccc1C(=O)O)Oc1ccccc1C(=O)O", "NORMALIZED SGLT1 ACTIVITY (%)": 116}, {"smiles": "O=C(O)c1cccnc1C(=O)O", "NORMALIZED SGLT1 ACTIVITY (%)": 124}, {"smiles": "NC[C@H]1O[C@H](O[C@H]2[C@H](O)[C@@H](O[C@H]3O[C@H](CO)[C@@H](O)[C@H](N)[C@H]3O)[C@H](N)C[C@@H]2N)[C@H](N)[C@@H](O)[C@@H]1O.O=S(=O)(O)O", "NORMALIZED SGLT1 ACTIVITY (%)": 89}, {"smiles": "CNC(C)(C)Cc1ccccc1.O=S(=O)(O)O", "NORMALIZED SGLT1 ACTIVITY (%)": 132}, {"smiles": "Oc1cc(O)cc(/C=C/c2ccccc2)c1", "NORMALIZED SGLT1 ACTIVITY (%)": 39}, {"smiles": "CC(C)(C)CC(C)(C)c1ccc(O)c(Cc2ccc(Cl)cc2Cl)c1", "NORMALIZED SGLT1 ACTIVITY (%)": 137}, {"smiles": "Nc1ccc(S(=O)(=O)Nc2ccc(Cl)nn2)cc1", "NORMALIZED SGLT1 ACTIVITY (%)": 86}, {"smiles": "CNC(=O)Oc1ccc2c(c1)[C@]1(C)CCN(C)[C@@H]1N2C.O=C(O)c1ccccc1O", "NORMALIZED SGLT1 ACTIVITY (%)": 102}, {"smiles": "CCOC(=O)c1ccc(N)cc1", "NORMALIZED SGLT1 ACTIVITY (%)": 116}, {"smiles": "CC(=O)O[C@H]1C[C@@H](OC(C)=O)C(C)(C)C2CC(=O)[C@]3(C)C(CC[C@@]4(C)[C@H](c5ccoc5)OC(=O)[C@H]5O[C@]543)[C@]21C", "note": "(some centres unmarked)", "NORMALIZED SGLT1 ACTIVITY (%)": 147}, {"smiles": "O=C([O-])Cc1ccccc1Nc1c(Cl)cccc1Cl.[Na+]", "NORMALIZED SGLT1 ACTIVITY (%)": 128}, {"smiles": "O=C(O)CCc1nc(-c2ccccc2)c(-c2ccccc2)o1", "NORMALIZED SGLT1 ACTIVITY (%)": 231}, {"smiles": "COC(=O)[C@]1(C)CC[C@]2(C)CC[C@]3(C)C4=CC=C5C(=CC(=O)C(O)=C5C)[C@]4(C)CC[C@@]3(C)[C@@H]2C1", "NORMALIZED SGLT1 ACTIVITY (%)": 121}, {"smiles": "CCCCCCCCCCCCCCCCOP(=O)([O-])OCC[N+](C)(C)C", "NORMALIZED SGLT1 ACTIVITY (%)": 79}, {"smiles": "C#CCN(C)Cc1ccccc1.Cl", "NORMALIZED SGLT1 ACTIVITY (%)": 134}, {"smiles": "COC1=CC23CCCN2CCc2cc4c(cc2C3C1O)OCO4", "note": "(centres unmarked)", "NORMALIZED SGLT1 ACTIVITY (%)": 107}, {"smiles": "Cc1cc(O)c(C=O)c2c1C(=O)Oc1c(C)c(O)c3c(c1O2)C(O)OC3=O", "note": "(centres unmarked)", "NORMALIZED SGLT1 ACTIVITY (%)": 142}, {"smiles": "COc1ccc2c(c1)OC1(O)COc3cc(OC)c(OC)cc3C1=C2", "note": "(centres unmarked)", "NORMALIZED SGLT1 ACTIVITY (%)": 172}, {"smiles": "CCCCCCCCC(=O)NCc1ccc(O)c(OC)c1", "NORMALIZED SGLT1 ACTIVITY (%)": 161}, {"smiles": "CC(=O)OC1CCC23C(=O)OC45CCC(C6=CC(=O)OC6)C4(C)CCC2C5CCC3(O)C1", "note": "(centres unmarked)", "NORMALIZED SGLT1 ACTIVITY (%)": 99}]}]}
